Test results reported in PubChem BioAssay (Tox21).
Values joined by “and” are separate entries in the source; they are usually repeats but may differ in a detail not shown here. Equal entries are not always repeated. Inconclusive results, whose numbers are uncertain, are shown with a selection of clear calls. Potencies of inconclusive entries are doubtful fits and often do not repeat. The source holds several records for some structures; these can differ, active in one and inactive in another. Active and inactive are the calls of the source. The call rests on the fitted dose curve; in most records, active means well fitted cell-killing curve with a large enough effect in the repeat runs; inconclusive means weak or mixed curves, or effect the other way; inactive means flat fitted curve, though single readings scatter.

Test: qHTS assay to identify small molecule antagonists of the androgen receptor (AR) signaling pathway using the MDA cell line - cell viability counter screen (AID 743041; further: nearly all actives have a fitted effect of over 45% in size)
Conditions: MDA-kb2 viability, CellTiter-Fluor, 16 h, cells co-treated with R1881 androgen agonist; viability change, negative = cytotoxic: at 70.3 µM (top of the series) unless noted
Description: National Center for Advancing Translational Sciences [NCATS]
NIH Chemical Genomics Center [NCGC]
U.S. Environmental Protection Agency [EPA]
National Institutes of Environmental Health Sciences [NIEHS]
National Toxicology Program [NTP]
U.S. Food and Drug Administration [FDA]
Androgen receptor (AR), a nuclear hormone receptor, plays a critical role in AR-dependent prostate cancer and other androgen related diseases. Endocrine disrupting chemicals (EDCs) and their interactions with steroid hormone receptors like AR may cause disruption of normal endocrine function as well as interfere with metabolic homeostasis, reproduction, developmental and behavioral functions. To identify the compounds that inhibit AR signaling, MDA-kb2 AR-luc cell line (from ATCC, deposited by Wilson et al.) was used to screen the Tox21 10K compound library. MDA-kb2 AR-luc cell line is human breast carcinoma cell line that was stably transfected with a luciferase reporter gene under control of the MMTV promoter containing response elements for both androgen receptor (AR) and glucocorticoid receptor (GR). The cytotoxicity of the Tox21 compound library against the MDA-kb2 AR-luc cell line was tested in parallel by measuring the cell viability using CellTiter-Fluor assay (Promega, Madison, WI) in the same wells.
Tox21 Assay Protocol Summary:
MDA-kb2 AR-luc cells were dispensed at 3,000 cells/4 uL/well of culture medium into white wall/solid-bottom 1536-well plates using a Multidrop Combi (ThermoFisher Scientific, Waltham, MA) dispenser. After the assay plates were incubated at a 37C and 0% CO2 for 5 hr, 23 nL of compounds dissolved in DMSO, positive controls or DMSO only was transferred to the assay plate by a Pintool station (Kalypsys, San Diego, CA), followed by addition of 1 uL of agonist (R1881) in culture medium using a Bioraptr Flying Reagent Dispenser (FRD) workstation (Beckman Coulter, Indianapolis, IN, USA). The plates were incubated at a 37C and 0% CO2 for 16 h. After 15.5 h incubation, 1uL of CellTiter-Fluor reagent (Promega) was added using a Bioraptr FRD to each plate for measuring cytotoxicity. The fluorescence intensity was quantified on a ViewLux plate reader (PerkinElmer, Shelton, CT) following 30 min incubation at 37C and 0% CO2.
On the % scale 0 is the no-effect control and ±100 the full control effect; potency means the concentration at half of the fitted maximal effect; tags describe the fitted curve by direction and shape.

Compound | Potency | viability change, negative = cytotoxic
c1ccc2c(c1)Sc1ccccc1N2CC1CN2CCC1CC2 (stereo not given) | inconclusive: 33.5 µM [cytotoxic, single point] | 
CC(C)CC(C)(c1ccc(O)cc1)c1ccc(O)cc1 | inconclusive: 61.3 µM [cytotoxic, single point] and inconclusive: 68.6 µM [cytotoxic, single point] | 
CCCOCC(=Nc1ccc(Cl)cc1C(F)(F)F)n1ccnc1 | active: 61.1 µM | 
Oc1cc(Cl)cc(Cl)c1 | inconclusive: 69.3 µM [cytotoxic, single point] | 
[Cl-].[Cl-].[Hg+2] | active: 24.8 µM and active: 54.2 µM and active: 61.1 µM | 
CCCCCC[n+]1ccccc1 | inconclusive: 68.5 µM [cytotoxic, single point] | inconclusive: -20% [at 95 µM]
O=[N+]([O-])c1c(Cl)c(Cl)c(Cl)c(Cl)c1Cl | inconclusive: 61.1 µM [cytotoxic, single point] | 
CCCN(CCC)c1c([N+](=O)[O-])cc(S(N)(=O)=O)cc1[N+](=O)[O-] | active: 51.8 µM | 
CCCN(CCC)c1c([N+](=O)[O-])cc(C(F)(F)F)cc1[N+](=O)[O-] |  | inconclusive: 33.4%
C=C(C)[C@H]1Cc2c(ccc3c2O[C@@H]2COc4cc(OC)c(OC)cc4[C@@H]2C3=O)O1 | active: 393 nM and active: 39.1 nM and active: 30.6 nM | 
CC(C)(C)c1cc(O)ccc1O | inconclusive: 33.5 µM [cytotoxic, single point] | 
COc1cccc(C(=O)CCN[C@@H](C)[C@H](O)c2ccccc2)c1 | inconclusive: 33.5 µM [cytotoxic, partial curve, poor fit] | 
C=CC(=O)OCC(COC(=O)C=C)(COC(=O)C=C)COC(=O)C=C | active: 7.7 µM | 
O=S1OCC2C(CO1)C1(Cl)C(Cl)=C(Cl)C2(Cl)C1(Cl)Cl (stereo not given) | inconclusive: 68.7 µM [cytotoxic, partial curve, poor fit] | 
FC(F)C(F)(F)OCC(Cn1cncn1)c1ccc(Cl)cc1Cl (stereo not given) | inconclusive: 68.2 µM [cytotoxic, single point] | 
O=C1c2ccccc2C(=O)C1C(=O)C(c1ccccc1)c1ccc(Cl)cc1 (stereo not given) | inconclusive: 54.5 µM [cytotoxic, partial curve] | 
CN1C[C@H](C(=O)N[C@]2(C)O[C@@]3(O)[C@@H]4CCCN4C(=O)[C@H](Cc4ccccc4)N3C2=O)C=C2c3cccc4[nH]cc(c34)C[C@H]21 | inconclusive: 30.8 µM [cytotoxic, partial curve] | 
CC(C)[C@@H](C(=O)O[C@@H](C#N)c1cccc(Oc2ccccc2)c1)c1ccc(Cl)cc1 |  | inconclusive: 30.9% [at 95 µM]
COc1cc(-c2ccc(N)c(OC)c2)ccc1N | inconclusive: 65.5 µM [cytotoxic] | 
[CH3][Hg][Cl] | inactive | 

Compound | Potency | viability change, negative = cytotoxic
O=C(Nc1ccc(Br)cc1)c1cc(Br)cc(Br)c1O | inconclusive: 68.6 µM [cytotoxic, partial curve, poor fit] | 
COC1=CC(=O)O[C@@H](CCc2ccccc2)C1 | inactive | 
Oc1ccc(C2(c3ccc(O)cc3)CCCCC2)cc1 | inconclusive: 72.9 µM [cytotoxic, single point] | 
CN1CCC(O)(c2ccc(F)cc2)C(C(=O)c2ccc(F)cc2)C1 (stereo not given) | inconclusive: 26.6 µM [cytotoxic, single point] | 
CC(C)C(Nc1ccc(C(F)(F)F)cc1Cl)C(=O)OC(C#N)c1cccc(Oc2ccccc2)c1 (stereo not given) | inactive | 
O=C(CCl)c1ccc(Cl)cc1Cl | inconclusive: 26.6 µM [cytotoxic, partial curve] and inconclusive: 68.6 µM [cytotoxic, partial curve, poor fit] | 
NCCCNCCCN | inconclusive: 69.6 µM [cytotoxic, partial curve, poor fit] | 
[CH3][Sn]([CH3])([Cl])[Cl] | inconclusive: 6.97 µM [cytotoxic, partial curve, poor fit] | 
OCC(c1ccc(Cl)cc1)c1ccc(Cl)cc1 | inconclusive: 68.6 µM [cytotoxic] | 
CC(=O)Nc1ccc2c(c1)Cc1ccccc1-2 |  | inconclusive: 33.6% [at 95 µM]
O=C1C(I)=CC(=C(c2cc(I)c(O)c(I)c2)c2ccccc2C(=O)O)C=C1I | inconclusive: 33.5 µM [cytotoxic, single point] | 
Fc1ccc(C(OCCN2CCN(CCCc3ccccc3)CC2)c2ccc(F)cc2)cc1 | active: 21.1 µM | 
O=C1c2ccccc2C(=O)c2ccccc21 | inconclusive: 0.0044 µM [rising, full curve, poor fit] | 
O=P(Oc1ccccc1)(Oc1ccccc1)Oc1ccccc1 | inconclusive: 27.2 µM [rising, partial curve, poor fit] | 
Oc1cc(Cl)c(Cl)cc1Cl | inconclusive: 68.6 µM [cytotoxic, partial curve, poor fit] | 
COc1ccc(C(c2ccc(OC)cc2)C(Cl)(Cl)Cl)cc1 | inconclusive: 0.682 µM [rising, full curve, poor fit] | 
ClC1=C(Cl)C2(Cl)C3C(Cl)C(Cl)CC3C1(Cl)C2(Cl)Cl (stereo not given) | inconclusive: 77 µM [cytotoxic, partial curve, poor fit] | 
CC(=O)/C=C/c1ccccc1 | inconclusive: 27.3 µM [rising, partial curve, poor fit] and inconclusive: 1.93 µM [rising, partial curve, poor fit] | 
CCOC(=O)[C@]1(c2ccccc2)Oc2ccccc2[C@@H]1N | inconclusive: 68.6 µM [cytotoxic, single point] | 
